# Whole data set: some 33,000 sequences, median “E-score (-0.5 to 0.5)” near -0.035, cut for the highest 2% near 0.35. Some of the results follow.
# Molecular target: T1, Pdr3 (UniProt P33200)
# T1 sequence: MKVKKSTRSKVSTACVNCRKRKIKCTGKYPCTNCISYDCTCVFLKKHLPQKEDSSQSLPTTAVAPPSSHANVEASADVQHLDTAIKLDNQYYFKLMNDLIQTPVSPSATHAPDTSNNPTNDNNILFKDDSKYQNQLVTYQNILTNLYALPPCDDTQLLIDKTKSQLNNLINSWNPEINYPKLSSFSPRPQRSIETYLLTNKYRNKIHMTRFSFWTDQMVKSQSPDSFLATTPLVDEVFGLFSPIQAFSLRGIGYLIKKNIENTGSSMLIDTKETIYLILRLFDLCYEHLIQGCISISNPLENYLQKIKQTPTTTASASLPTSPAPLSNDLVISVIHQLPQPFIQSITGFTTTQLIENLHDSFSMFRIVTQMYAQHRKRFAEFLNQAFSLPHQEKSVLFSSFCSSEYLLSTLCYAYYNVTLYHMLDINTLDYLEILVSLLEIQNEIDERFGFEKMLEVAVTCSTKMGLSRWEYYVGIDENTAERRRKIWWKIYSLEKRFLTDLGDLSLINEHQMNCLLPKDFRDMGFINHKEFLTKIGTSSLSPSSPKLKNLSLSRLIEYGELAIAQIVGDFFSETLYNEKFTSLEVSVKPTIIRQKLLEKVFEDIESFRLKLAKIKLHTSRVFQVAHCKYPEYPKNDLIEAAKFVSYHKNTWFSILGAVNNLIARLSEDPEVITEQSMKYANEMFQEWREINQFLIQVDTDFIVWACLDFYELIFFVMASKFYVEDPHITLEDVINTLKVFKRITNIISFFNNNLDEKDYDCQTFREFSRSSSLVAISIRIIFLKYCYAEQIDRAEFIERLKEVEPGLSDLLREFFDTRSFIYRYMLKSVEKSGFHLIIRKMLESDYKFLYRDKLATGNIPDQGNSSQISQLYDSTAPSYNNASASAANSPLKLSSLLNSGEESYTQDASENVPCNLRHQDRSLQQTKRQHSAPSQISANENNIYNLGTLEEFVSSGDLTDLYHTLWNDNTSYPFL
# Test: PBM E-score (8-mer binding enrichment) (E-score (-0.5 to 0.5)); higher = stronger / more preferred TF binding; most listed sequences are background and not binding sites
# Details: protein concentration: 200 nM; construct: GST-full length
# Procedure, shortened: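 Detection of bound protein used fluorescent anti-GST, with scans normalised by masliner. The proteins were GST-tagged yeast transcription factors applied at about 100-200 nM to universal all-10-mer Agilent arrays made double-stranded by primer extension. Each ungapped eight-base word, pooled with its reverse complement, was scored with an E-score from the Universal PBM Analysis Suite.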
row,Sequence,PBM E-score
1,GTGGGAAC,-0.0738
2,GGCGCCAC,0.14
3,CAGCTTCC,0.202
4,CATCGATA,0.0725
5,AGGGATCG,-0.078
6,CACCTCAG,-0.241
7,CAAGGCCA,-0.127
8,CGTGAGGC,0.0391
9,GGCGGGAA,0.198
10,ACGACTAT,-0.128
11,CTCATCCC,0.00209
12,ACCGCCCT,-0.041
13,CAGATTGC,-0.0891
14,TGGATACA,-0.189
15,AAAGTAAG,-0.176
16,CATCGGGC,0.0304
17,ACGACTAA,-0.2
18,GCCAGCAA,-0.0512
19,CCCGTTGA,0.0291
20,GGCGGACC,0.357
21,CTAAACAC,-0.269
22,CAGTGAGA,-0.0851
23,TCCAAACA,-0.132
24,CGCTTTTC,0.0476
25,GACAAGAC,0.174

row,Sequence,PBM E-score
1,AACGTTGT,-0.0392
2,CGAAGACG,0.037
3,CGATGTGA,-0.205
4,ATACCTGG,-0.113
5,ATCTTGAA,-0.061
6,AGGGTACA,-0.166
7,ACAGGGTC,0.111
8,CGTCTTAA,-0.252
9,GTTTATGA,-0.0474
10,CTCTGGCA,-0.109
11,CTTTTACC,-0.169
12,AATCAGCC,-0.0911
13,TTCTTCAA,-0.00084
14,TAAGATAA,-0.0608
15,CTGTTGTC,0.00651
16,AAAACGGC,0.0837
17,CGGAACAA,0.476
18,CGTGGGCC,0.116
19,AGCAAAAT,0.125
20,CTGGACGA,-0.212
21,AGCTTCTC,-0.0837
22,GGTGGCGA,-0.0736
23,CACATACC,-0.0506
24,GAACTTAC,-0.0657
25,GTCACGAA,0.0345

row,Sequence,PBM E-score
1,CGGACAAA,0.333
2,AGTCGGTC,0.0743
3,AATGTTAC,-0.0378
4,CGGTCTTA,-0.108
5,ATGCAGAA,-0.0736
6,GCAGTAAA,0.0241
7,AGCTTAAC,-0.0803
8,AGTTTTCC,0.303
9,GCTGGCTA,-0.255
10,CCAGCGGG,0.147
11,AAAACACG,-0.00814
12,ATATGTAG,-0.169
13,ATGTGCAG,-0.186
14,CCTAGGGC,-0.104
15,ATTATTAC,0.00492
16,CATGAATG,0.0813
17,ATATCATG,-0.185
18,CCTTCTAA,-0.316
19,CGAATACA,0.141
20,CTATGCTC,-0.215
21,ATTAGGGA,-0.0882
22,AAACGCTG,-0.261
23,AAGGTGTC,0.0566
24,ACGGTAGT,-0.00668
25,AATAGGGG,0.0604

row,Sequence,PBM E-score
1,CGCAGGAG,-0.0399
2,GCCCACAC,0.0749
3,TGCGGCAA,-0.0626
4,GTAACCAC,-0.301
5,CATACTTC,-0.117
6,CTTCCTTC,-0.174
7,AGAAAGAT,-0.106
8,TAAATATA,0.107
9,ACTGGCCT,-0.0349
10,GCTTGGCA,-0.232
11,ACGACAAG,-0.133
12,GACAGTCC,-0.0383
13,CTTCGAGA,-0.187
14,GTCAAAAA,-0.163
15,AAAGTGAC,-0.101
16,CCTAGTCA,-0.323
17,ACAGGCGG,0.142
18,AGGTACGG,0.0614
19,CAGAGTAG,-0.226
20,ATGACATG,-0.0403
21,CGCTGATA,-0.115
22,ACGGCTGG,0.00647
23,TAACTGAA,-0.173
24,ACTTTTCG,-0.00487
25,TTAGAAAA,-0.164

row,Sequence,PBM E-score
1,CTGAGCTA,-0.206
2,GCAGTGCA,-0.0221
3,ACCACGGA,0.377
4,CACTTGTA,-0.226
5,GTCAGCTA,-0.181
6,GTATGGCA,-0.0708
7,CAGTATCA,-0.0897
8,ATGCCACG,0.0833
9,CAGTTCAC,-0.081
10,AGAGGCAC,-0.154
11,CACACAAA,-0.0672
12,GTGCGCGA,0.135
13,ATATTGTG,-0.125
14,ATTAACAG,-0.142
15,CAACATTA,-0.0498
16,ATACCAAG,0.0273
17,ACGTCGAC,0.0694
18,ACCACTCT,-0.0702
19,ACTCCTAC,-0.176
20,AGACTCGG,-0.099
21,CTGCCCAC,-0.184
22,GCATAAGC,-0.145
23,CCGTGGAA,0.437
24,CCTGGCAG,-0.214
25,CCCTAACC,-0.0984

row,Sequence,PBM E-score
1,TATGCTGA,-0.0666
2,ACTGCAAA,0.053
3,TGCGAGAA,-0.139
4,CCTACTAA,0.111
5,ACTTATCG,0.0484
6,CCGGTTCC,0.426
7,CGAGCCCG,0.0919
8,ACGAGGAG,-0.156
9,AAGTGGGC,-0.0765
10,AAAAGTTT,-0.0885
11,CGACCTCA,-0.02
12,CCCTACGA,-0.111
13,ATGAACCA,0.11
14,ATCAGCAT,0.0174
15,CCCAGAGA,-0.223
16,AATATACC,0.0896
17,ACCATACC,0.0114
18,CATGTGTC,-0.0825
19,GTGTCCGA,0.279
20,AAGACCTT,-0.276
21,ATTCCGTC,0.42
22,TGTCCAAA,-0.0358
23,GTTGCGCA,-0.103
24,CCCGCTTC,0.12
25,GTTAAAAA,-0.152

row,Sequence,PBM E-score
1,ATCAATTC,0.054
2,ACCAGCCT,-0.158
3,GCTTGTCC,0.128
4,CCAGCGAG,-0.0025
5,CTTGGAAA,-0.109
6,AGGAGGAT,-0.0986
7,CACCGGGC,0.171
8,GGGGGTGA,-0.129
9,AACCCACT,0.0857
10,AAGCCTAC,-0.219
11,CCTGAACC,-0.188
12,GTATACAC,-0.118
13,AGCCGGAG,0.362
14,AGGATCGA,-0.0117
15,ACAGGCAT,-0.0543
16,CCTTGGAC,-0.181
17,CTTAGTGC,0.00478
18,GGGGACAC,-0.0313
19,AGCAAGCG,0.226
20,GGCAGCCC,0.138
21,CCATGTCA,-0.164
22,GAAGGCAC,0.0418

# From the supplement of paper PMC3334620
